# In publication PMC9911399, “Two distinct binding modes provide the RNA-binding protein RbFox with extraordinary sequence specificity”:
# Substitutions are numbered along the chain they refer to; changes in the protein carry UniProt numbers. Some of the results follow.
# T1: RBFOX1 RRM (Homo sapiens, UniProt Q9NWB1 109-208)
# T1 sequence: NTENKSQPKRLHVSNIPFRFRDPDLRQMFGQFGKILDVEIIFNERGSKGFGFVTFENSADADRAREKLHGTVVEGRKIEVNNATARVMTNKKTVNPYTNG
# B1: UGAAGUC (DNA:RNA)
# RNA: GGGAGACCGGAAUUCAGAUUGUCCUGAAGUCUUAAAUCCCGUCGUAGCCACCA
# DNA 1: CAATCTGAATTCCGGTCTCCC
# DNA 2: TGGTGGCTACGACGGGATT
# B2: CACGAUU (DNA:RNA)
# RNA: B1 RNA with U25C, G26A, A27C, A28G, G29A, C31U
# DNA 1: CAATCTGAATTCCGGTCTCCC
# DNA 2: TGGTGGCTACGACGGGATT
# B3: AUGGUGC (DNA:RNA)
# RNA: B1 RNA with U25A, G26U, A27G, A28G, G29U, U30G
# DNA 1: CAATCTGAATTCCGGTCTCCC
# DNA 2: TGGTGGCTACGACGGGATT
# B4: AGGGUUG (DNA:RNA)
# RNA: B1 RNA with U25A, A27G, A28G, G29U, C31G
# DNA 1: CAATCTGAATTCCGGTCTCCC
# DNA 2: TGGTGGCTACGACGGGATT
# B5: UAAUAAA (DNA:RNA)
# RNA: B1 RNA with G26A, A28U, G29A, U30A, C31A
# DNA 1: CAATCTGAATTCCGGTCTCCC
# DNA 2: TGGTGGCTACGACGGGATT
# B6: UAGAUAA (DNA:RNA)
# RNA: B1 RNA with G26A, A27G, G29U, U30A, C31A
# DNA 1: CAATCTGAATTCCGGTCTCCC
# DNA 2: TGGTGGCTACGACGGGATT
# B7: AGUGGGA (DNA:RNA)
# RNA: B1 RNA with U25A, A27U, A28G, U30G, C31A
# DNA 1: CAATCTGAATTCCGGTCTCCC
# DNA 2: TGGTGGCTACGACGGGATT
# B8: CCGCCUU (DNA:RNA)
# RNA: B1 RNA with U25C, G26C, A27G, A28C, G29C, C31U
# DNA 1: CAATCTGAATTCCGGTCTCCC
# DNA 2: TGGTGGCTACGACGGGATT
# B9: CUCAUUG (DNA:RNA)
# RNA: B1 RNA with U25C, G26U, A27C, G29U, C31G
# DNA 1: CAATCTGAATTCCGGTCTCCC
# DNA 2: TGGTGGCTACGACGGGATT
# B10: GAUCCAG (DNA:RNA)
# RNA: GGGAGACCGGAAUUCAGAUUGUCCGAUCCAGUUAAAUCCCGUCGUAGCCACCA
# DNA 1: CAATCTGAATTCCGGTCTCCC
# DNA 2: TGGTGGCTACGACGGGATT
# B11: UUGGGUG (DNA:RNA)
# RNA: B1 RNA with G26U, A27G, A28G, C31G
# DNA 1: CAATCTGAATTCCGGTCTCCC
# DNA 2: TGGTGGCTACGACGGGATT
# B12: CGUGGUA (DNA:RNA)
# RNA: B1 RNA with U25C, A27U, A28G, C31A
# DNA 1: CAATCTGAATTCCGGTCTCCC
# DNA 2: TGGTGGCTACGACGGGATT
# B13: GCGGCUG (DNA:RNA)
# RNA: B10 RNA with A26C, U27G, C28G, A30U
# DNA 1: CAATCTGAATTCCGGTCTCCC
# DNA 2: TGGTGGCTACGACGGGATT
# B14: AGAGGGU (DNA:RNA)
# RNA: B1 RNA with U25A, A28G, U30G, C31U
# DNA 1: CAATCTGAATTCCGGTCTCCC
# DNA 2: TGGTGGCTACGACGGGATT
# B15: GGGACCG (DNA:RNA)
# RNA: B10 RNA with A26G, U27G, C28A, A30C
# DNA 1: CAATCTGAATTCCGGTCTCCC
# DNA 2: TGGTGGCTACGACGGGATT
# B16: AGGUGCG (DNA:RNA)
# RNA: B1 RNA with U25A, A27G, A28U, U30C, C31G
# DNA 1: CAATCTGAATTCCGGTCTCCC
# DNA 2: TGGTGGCTACGACGGGATT
# B17: GGGGUAG (DNA:RNA)
# RNA: B10 RNA with A26G, U27G, C28G, C29U
# DNA 1: CAATCTGAATTCCGGTCTCCC
# DNA 2: TGGTGGCTACGACGGGATT
# B18: GCCUGUU (DNA:RNA)
# RNA: B1 RNA with U25G, G26C, A27C, A28U, C31U
# DNA 1: CAATCTGAATTCCGGTCTCCC
# DNA 2: TGGTGGCTACGACGGGATT
# B19: ACGCCGA (DNA:RNA)
# RNA: B10 RNA with G25A, A26C, U27G, A30G, G31A
# DNA 1: CAATCTGAATTCCGGTCTCCC
# DNA 2: TGGTGGCTACGACGGGATT
# B20: CACUAAU (DNA:RNA)
# RNA: B10 RNA with G25C, U27C, C28U, C29A, G31U
# DNA 1: CAATCTGAATTCCGGTCTCCC
# DNA 2: TGGTGGCTACGACGGGATT
# B21: CAAUGUC (DNA:RNA)
# RNA: B1 RNA with U25C, G26A, A28U
# DNA 1: CAATCTGAATTCCGGTCTCCC
# DNA 2: TGGTGGCTACGACGGGATT
# B22: GCUUAUA (DNA:RNA)
# RNA: B10 RNA with A26C, C28U, C29A, A30U, G31A
# DNA 1: CAATCTGAATTCCGGTCTCCC
# DNA 2: TGGTGGCTACGACGGGATT
# B23: CCUUCCG (DNA:RNA)
# RNA: B10 RNA with G25C, A26C, C28U, A30C
# DNA 1: CAATCTGAATTCCGGTCTCCC
# DNA 2: TGGTGGCTACGACGGGATT
# B24: AAUAUUC (DNA:RNA)
# RNA: B1 RNA with U25A, G26A, A27U, G29U
# DNA 1: CAATCTGAATTCCGGTCTCCC
# DNA 2: TGGTGGCTACGACGGGATT
# B25: UGAUCUA (DNA:RNA)
# RNA: B1 RNA with A28U, G29C, C31A
# DNA 1: CAATCTGAATTCCGGTCTCCC
# DNA 2: TGGTGGCTACGACGGGATT
# B26: CAACUGG (DNA:RNA)
# RNA: B10 RNA with G25C, U27A, C29U, A30G
# DNA 1: CAATCTGAATTCCGGTCTCCC
# DNA 2: TGGTGGCTACGACGGGATT
# B27: UCGGGUG (DNA:RNA)
# RNA: B1 RNA with G26C, A27G, A28G, C31G
# DNA 1: CAATCTGAATTCCGGTCTCCC
# DNA 2: TGGTGGCTACGACGGGATT
# B28: UGGCACA (DNA:RNA)
# RNA: B1 RNA with A27G, A28C, G29A, U30C, C31A
# DNA 1: CAATCTGAATTCCGGTCTCCC
# DNA 2: TGGTGGCTACGACGGGATT
# B29: CUUUCCG (DNA:RNA)
# RNA: B10 RNA with G25C, A26U, C28U, A30C
# DNA 1: CAATCTGAATTCCGGTCTCCC
# DNA 2: TGGTGGCTACGACGGGATT
# B30: AUCUCCG (DNA:RNA)
# RNA: B10 RNA with G25A, A26U, U27C, C28U, A30C
# DNA 1: CAATCTGAATTCCGGTCTCCC
# DNA 2: TGGTGGCTACGACGGGATT
# B31: UGUGCUA (DNA:RNA)
# RNA: B1 RNA with A27U, A28G, G29C, C31A
# DNA 1: CAATCTGAATTCCGGTCTCCC
# DNA 2: TGGTGGCTACGACGGGATT
# Molecular target: T1, RBFOX1 RRM
# Assay: EMSA; HiTS-Eq, 1 nM pool, 10 min; buffer printed only for the single-RNA assays: 10 mM Tris pH 7.5, 150 mM NaCl, 3.4 mM EDTA, 0.001% NP-40, 30 C
# Conditions: tags: His6 N-terminal (pET28a); label: 5' 32P
# How it was run: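 These values rest on relative association constants, computed from read-count changes of each RNA species versus the control reaction and normalised to the cognate motif. Reads came from free RNA recovered by 8% native PAGE after purified RbFox RRM (wild type or mutant) at increasing concentrations was equilibrated for 10 min in 50 µL with 1 nM of a 5′-radiolabelled pool with 7 randomized nucleotides and DNA-annealed flanks.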
row,Binder,binding signal
1,B1,0.0195 KA relative to UGCAUGU
2,B2,0.00297 KA relative to UGCAUGU
3,B3,0.0164 KA relative to UGCAUGU
4,B4,0.0284 KA relative to UGCAUGU
5,B5,0.00103 KA relative to UGCAUGU
6,B6,0.00555 KA relative to UGCAUGU
7,B7,0.00944 KA relative to UGCAUGU
8,B8,0.00562 KA relative to UGCAUGU
9,B9,0.0114 KA relative to UGCAUGU
10,B10,0.00984 KA relative to UGCAUGU
11,B11,0.0408 KA relative to UGCAUGU
12,B12,0.0128 KA relative to UGCAUGU
13,B13,0.0233 KA relative to UGCAUGU
14,B14,0.0088 KA relative to UGCAUGU
15,B15,0.0273 KA relative to UGCAUGU
16,B16,0.0146 KA relative to UGCAUGU

row,Binder,binding signal
1,B17,0.027 KA relative to UGCAUGU
2,B18,0.0238 KA relative to UGCAUGU
3,B19,0.00551 KA relative to UGCAUGU
4,B20,0.00175 KA relative to UGCAUGU
5,B21,0.00749 KA relative to UGCAUGU
6,B22,0.00444 KA relative to UGCAUGU
7,B23,0.00796 KA relative to UGCAUGU
8,B24,0.00124 KA relative to UGCAUGU
9,B25,0.0112 KA relative to UGCAUGU
10,B26,0.00817 KA relative to UGCAUGU
11,B27,0.0226 KA relative to UGCAUGU
12,B28,0.0101 KA relative to UGCAUGU
13,B29,0.00704 KA relative to UGCAUGU
14,B30,0.0015 KA relative to UGCAUGU
15,B31,0.0149 KA relative to UGCAUGU
